Source: PubChem BioAssay AID1345083 (National Center for Advancing Translational Sciences (NCATS), 2018)
Out of some 94,000 compounds screened, about 6,200 (6.6%) were called active. This list was built around the results that the source calls inconclusive (neither active nor inactive); the mix of calls is not that of the screen. Calls follow the shape of the dose curve; as a rule, active = well fitted inhibition curve with a large enough effect; inconclusive = small, poorly fitted or top-dose-only effect; inactive = flat fitted curve, though single readings scatter. A potency beside an inconclusive call is a rough fit, not a confirmed value.

Experiment: Cytotoxic Profiling in HEK 293 Cell Line of Diverse Libraries Using Quantitative High-Throughput Screening; also: nearly all actives have a fitted effect of over 60% in size
Details: HEK 293 viability, ATP luminescence (CellTiter-Glo), 48-72 h; series mostly up to 115 µM; activity change, negative = cytotoxicity: at the top concentration
Summary of the method: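 Viability of HEK 293 cells, plated at 250 cells/well, was judged by cellular ATP after compound treatment for 48 or 72 hr. Luminescence was imaged 10 min after CellTiter-Glo addition at room temperature.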
% is scaled to controls: 0 for no effect and ±100 for the full control effect; potency is read from the fitted curve at half-maximal effect; tags tell the direction and shape of the fitted curve.

Compound	activity change, negative = cytotoxicity	Potency	outcome
O=C(O)COCC(=O)N1C[C@@H]2C[C@H](C1)c1c(-c3ccc4ccccc4c3)ccc(=O)n1C2	inactive: -2.71% [at 172 µM]	–	–
Cc1cc(C(=O)N2[C@H]3CC[C@@H]2c2cnc(-c4ccccc4)nc2C3)nn1C	–	inconclusive: 79.4 µM [inhibitor, partial curve]	–
CC(C)CC(=O)N1CCC2(CC1)c1nccn1-c1ccccc1CN2C	inactive: -1.45%	–	–
CC(=O)c1ccc(NC(=O)NC[C@H]2C[C@@H]3CCN2C[C@@H]3CN2CCN(c3ncccn3)CC2)cc1	inactive: -12.7%	–	–
COc1cc2c(cc1OCc1ccncc1)NC(=O)C21CCN(Cc2ccccn2)CC1	–	inconclusive: 100 µM [inhibitor, partial curve, poor fit]	–
O=C(Nc1ccc2n(c1=O)C[C@H]1C[C@@H]2CN(Cc2ccc(F)cc2)C1)c1cccs1	–	active: 25.1 µM	–
CN(C)Cc1ccccc1-c1ccc2n(c1=O)C[C@H]1C[C@@H]2CN(C(=O)c2ccco2)C1	inactive: -1.05% [at 172 µM]	–	–
CC(=O)Nc1ccc(S(=O)(=O)NC[C@H]2C[C@@H]3CCN2C[C@@H]3c2cc(-c3ccco3)nc(C)n2)cc1	–	inconclusive: 79.4 µM [inhibitor, partial curve, poor fit]	–
CCC(CC)c1cc([C@H]2CN3CC[C@H]2C[C@@H]3CNC(=O)Cc2cccs2)nc(-c2ccncc2)n1	–	active: 39.8 µM	–
O=C(CCc1c[nH]c2ccccc12)N1[C@H]2CC[C@@H]1c1cnc(-c3ccccc3)nc1C2	inactive: -3.61%	–	–
CCC(CC)C(=O)NC[C@H]1C[C@@H]2CCN1C[C@@H]2c1cc(-c2ccc(OC)c(OC)c2)nn1C	inactive: 0.819%	–	–
COc1ccc(CCC(=O)N2[C@H]3CC[C@@H]2c2cnc(-c4ccc(F)cc4)nc2C3)cc1	–	inconclusive: 35.5 µM [inhibitor, partial curve, poor fit]	–
Cc1nc(-c2ccc(N(C)C)cc2)cc([C@H]2CN3CC[C@H]2C[C@@H]3CNC(=O)N2CCOCC2)n1	–	inconclusive: 89.1 µM [inhibitor, single point]	–
COc1ccc(C(=O)N2[C@H]3CC[C@@H]2c2cnc(-c4ccc(F)cc4)nc2C3)cc1F	inactive: -0.372%	–	–
COc1ccccc1-c1cc([C@H]2CN3CC[C@H]2C[C@@H]3COC(=O)Nc2ccc(C(C)=O)cc2)n(C)n1	–	inconclusive: 56.2 µM [inhibitor, partial curve, poor fit]	–
CC1CCN(C[C@H]2CN3CC[C@H]2C[C@@H]3CNC(=O)Nc2ccccc2)CC1	–	inconclusive: 112 µM [inhibitor, single point]	–
COCC1CN(C2CCC2)CC12CCN(Cc1cccnc1)CC2 (stereo not given)	inactive: -3.19%	–	–
O=[S+]1([O-])NC2(CCN(Cc3cccs3)C2)COc2ccncc21 (stereo not given)	inactive: -13.7%	–	–
CC1=NOC2(CCN(CCC(C)C)C2)C1 (stereo not given)	–	inconclusive: 158 µM [inhibitor, partial curve, poor fit]	–
Cc1cc(CN2CCC3(CC(C(C)C)=NO3)C2)no1 (stereo not given)	–	–	inactive [at 172 µM]
COc1ccc(-c2cn(C[C@H]3C[C@@H]4CCN3C[C@@H]4C(=O)N3CCOCC3)nn2)cc1	inactive: -9.77% [at 172 µM]	–	–
Cc1ccc([C@H]2CN(C(=O)CN3C(=O)CNC3=O)[C@@H]3C4CCN(CC4)[C@H]23)cc1	inactive: -25%	–	–

Compound	activity change, negative = cytotoxicity	Potency	outcome
C#CCN(C)C[C@H]1CN2CC[C@H]1C[C@@H]2CNC(=O)c1ccc(C(F)(F)F)cc1	inactive: -17% [at 172 µM]	–	–
O=C(Nc1ccc2n(c1=O)C[C@H]1C[C@@H]2CN(C(=O)c2ccccc2)C1)NC1CCCCC1	inactive: -1.55% [at 172 µM]	–	–
O=C(NCc1ccc(F)cc1)[C@H]1CN2CCC1C[C@@H]2Cn1cc(CO)nn1 (stereo not given in full)	inactive: -9.81% [at 172 µM]	–	–
CN1CCCCC12Cc1ccccc1CN(C(=O)Cc1ccccc1)C2 (stereo not given)	–	inconclusive: 89.1 µM [inhibitor, partial curve, poor fit]	–
O=C(COc1ccc(F)cc1)N1CCN2CCS(=O)(=O)N(C3CC3)C(=O)C2C1 (stereo not given)	inactive: 0.596%	–	–
CC[C@H]1CN2CC[C@H]1C[C@@H]2CNCc1ccc2c(c1)OCO2	–	inconclusive: 112 µM [inhibitor, partial curve, poor fit]	–
COc1cc2c(cc1OCc1ccncc1)NC(=O)C21CCN(Cc2nccs2)CC1	–	inconclusive: 89.1 µM [inhibitor, partial curve, poor fit]	–
CN1CCN(C(=O)Cc2cccn2-c2ccc(Cl)cc2)CC1	inactive: -7.17%	–	–
COCCOCC(=O)N1[C@H]2CC[C@@H]1c1cnc(-c3ccc(F)cc3)nc1C2	inactive: -14.5%	–	–
COc1ccc(-c2cn(C[C@H]3CC4CCN3C[C@@H]4C(=O)NCCNC(C)=O)nn2)cc1 (stereo not given in full)	inactive: -2.45% [at 172 µM]	–	–
c1cc2nc(C3CCCNC3)[nH]c2cn1 (stereo not given)	–	inactive	–
Cc1ncc2c(n1)C[C@@H]1CC[C@H]2N1C(=O)c1ccnn1C	inactive: 2.55%	–	–
O=C(C1CCCCC1)N1C[C@@H]2C[C@H](C1)c1c(-c3ccc(Cl)cc3)ccc(=O)n1C2	–	inconclusive: 79.4 µM [inhibitor, partial curve]	–
COc1cc2c(cc1OCc1ccccc1)N(C(=O)c1ccn(C)n1)CC21CCN(C)CC1	inactive: -20.7%	–	–
O=C(CC1CCCC1)N1[C@H]2CC[C@@H]1c1cnc(-c3ccccc3)nc1C2	–	inconclusive: 7.94 µM [inhibitor, full curve, poor fit]	–
O=C(Nc1ccccc1)N1C[C@@H]2C[C@H](C1)c1c(-c3ccc(Cl)cc3)ccc(=O)n1C2	–	inconclusive: 126 µM [inhibitor, single point]	–
O=C1NCC2(CCCN(Cc3cc(=O)c4cccc(F)c4[nH]3)C2)O1 (stereo not given)	inactive: -9.27%	–	–
Cc1ccc(CC(=O)N2CCN(C3CCN(Cc4cccnc4)C3=O)CC2)cc1 (stereo not given)	–	inconclusive: 63.1 µM [inhibitor, partial curve, poor fit]	–
COCCC(=O)Nc1ccc2n(c1=O)C[C@H]1C[C@@H]2CN(CCCc2ccccc2)C1	–	inconclusive: 89.1 µM [inhibitor, partial curve, poor fit]	–
Cc1nc(-c2ccccc2)cc([C@H]2CN3CC[C@H]2C[C@@H]3CNC(=O)NC(C)C)n1	–	inconclusive: 100 µM [inhibitor, partial curve, poor fit]	–
COc1ccc(N2CC3CCC(C2)N3CC(F)(F)F)cn1	inactive: 3.56%	–	–
CC(=O)Nc1ccc(S(=O)(=O)NC[C@H]2C[C@@H]3CCN2C[C@@H]3c2cc(-c3ccccc3)nn2C)cc1	–	inconclusive: 89.1 µM [inhibitor, single point]	–

Compound	activity change, negative = cytotoxicity	Potency	outcome
COc1ccccc1-c1cc([C@H]2CN3CC[C@H]2C[C@@H]3COC(=O)Nc2ccc(C(C)(C)C)cc2)n(C)n1	–	active: 25.1 µM	–
Cc1nc(-c2ccccc2)cc([C@H]2CN3CC[C@H]2C[C@@H]3CNC(=O)N2CCOCC2)n1	–	inconclusive: 100 µM [inhibitor, partial curve, poor fit]	–
Cc1ccc(S(=O)(=O)NC[C@H]2C[C@@H]3CCN2C[C@@H]3CN(C)CCc2ccccn2)cc1	–	inconclusive: 89.1 µM [inhibitor, single point]	–
CC(=O)c1cccc(NC(=O)OC[C@H]2C[C@@H]3CCN2C[C@@H]3c2cc(C3CCCC3)nc(-c3ccncc3)n2)c1	–	inconclusive: 14.1 µM [inhibitor, full curve, poor fit]	–
C=C[C@H]1CN2CC[C@H]1C[C@@H]2CNC(=O)Nc1cccc(SC)c1	–	inconclusive: 79.4 µM [inhibitor, partial curve]	–
COCCNC(=O)N1CCC2(C1)C(=O)N(C)c1ccc(OC)cc12 (stereo not given)	inactive: 0.721%	–	–
Cc1cc(C)c2[nH]c(C(=O)N3CCC(C#N)(c4ccccc4)CC3)c(C)c2c1	–	inconclusive: 35.5 µM [inhibitor, partial curve, poor fit]	–
COc1cc2c(cc1CCc1ccccc1)N(C(=O)[C@@H]1CCCO1)CC21CCN(C(C)=O)CC1	–	inconclusive: 89.1 µM [inhibitor, single point]	–
CCOC(=O)[C@H]1CN(C(=O)OCC(C)C)[C@]2(C)C(=O)N(CCOC)c3ccccc3[C@H]12	inactive: -20.8% [at 57.5 µM]	–	–
COc1ccc(NC(=O)NC[C@H]2C[C@@H]3CCN2C[C@@H]3CN2CCN(c3ccccc3OC)CC2)cc1	–	active: 89.1 µM	–
Cc1nc(-c2cccs2)cc([C@H]2CN3CC[C@H]2C[C@@H]3CNC(=O)c2ccco2)n1	–	inconclusive: 112 µM [inhibitor, partial curve, poor fit]	–
CC(C)CN1Cc2ccccc2-n2ccnc2C12CCN(C(=O)c1ccoc1)CC2	–	inconclusive: 44.7 µM [inhibitor, partial curve, poor fit]	–
O=C(NC[C@H]1C[C@@H]2CCN1C[C@@H]2CN1CCC(Cc2ccccc2)CC1)c1ccccc1	–	active: 25.1 µM	–
CN1CCCCCCN(Cc2ccccn2)[C@H]2CCC[C@H]2C1=O	–	inconclusive: 56.2 µM [inhibitor, partial curve, poor fit]	–
O=C(Cc1cccc(F)c1)N1CCN(C2CCN(Cc3cccnc3)C2=O)CC1 (stereo not given)	–	–	inactive
CC(C)c1ccc(NC(=O)OC[C@H]2C[C@@H]3CCN2C[C@@H]3c2cc(C3CCCC3)nc(-c3ccncc3)n2)cc1	–	active: 3.55 µM	–
O=[N+]([O-])c1cccnc1N1CC2CCC(C1)N2CC(F)(F)F	inactive: -12.7%	–	–
c1ccc2c3c([nH]c2c1)C1(CCNCC1)NCC3	–	inconclusive: 56.2 µM [inhibitor, partial curve, poor fit]	–
COc1cccc([C@@H]2CCN(Cc3cc4ccccc4n(C)c3=O)C[C@H]2O)c1	–	inconclusive: 100 µM [inhibitor, partial curve, poor fit]	–
COc1cccc(S(=O)(=O)N2CCC3(C2)C(=O)N(C)c2ccc(OC)cc23)c1 (stereo not given)	–	inconclusive: 89.1 µM [inhibitor, partial curve, poor fit]	–
O=C(Nc1ccccc1)Nc1ccc2n(c1=O)C[C@H]1C[C@@H]2CN(C(=O)c2cccs2)C1	–	inconclusive: 126 µM [inhibitor, single point]	–
